{"source": "ChEMBL document CHEMBL4888484", "about": "“Replenishing the malaria drug discovery pipeline: Screening and hit evaluation of the MMV Hit Generation Library 1 (HGL1) against asexual blood stage Plasmodium falciparum ,using a nano luciferase reporter read-out” (2022)", "note": "Screen size: about 150,000 compounds; about 540 (0.36%) showed an effect of 50% or more. Some of the results follow."}
{"system": "Plasmodium falciparum", "test": "Primary screen in NF54 nanoGlo assay, in single point, at 2uM, 72h; a lower Z score goes with more inhibition", "type": "functional, Erythrocyte", "conditions": "timepoint 72 hour", "units": {"% Inhibition": "%"}}
{"smiles": "CCC[C@H](C)NC(=O)c1ccc(C)cc1Cl", "% Inhibition": -7, "Z score": 1.03}
{"smiles": "Cc1cnn(CCCn2ccnc2-c2cccc3nonc23)c1", "% Inhibition": 0, "Z score": -0.01}
{"smiles": "Cc1cccc(N2CCN(C(=O)c3ccc([C@H]4CCCNC4)cc3)CC2)c1C", "% Inhibition": 7, "Z score": -0.94}
{"smiles": "O=C1CC[C@](CCC(=O)N2CCCC2)(Cc2cccc3ccccc23)N1", "% Inhibition": -3, "Z score": 0.38}
{"smiles": "Cn1c(CN2CCOCC2)nnc1[C@H]1CCCN(c2nccc(N)n2)C1", "% Inhibition": -14, "Z score": 2.72}
{"smiles": "C[C@@H](Cc1cccnc1)Nc1cc(-c2ccccc2F)nc2ccnn12", "% Inhibition": -6, "Z score": 1.04}
{"smiles": "Cn1c(-n2nc(C3CCOCC3)nc2-c2cn[nH]c2)nc2ccccc21", "% Inhibition": -16, "Z score": 1.47}
{"smiles": "COCC(=O)NC[C@]1(O)CCCN(C(=O)NCc2cccc(F)c2)CC1", "% Inhibition": 0, "Z score": -0.02}
{"smiles": "O=C(NC1CCCC1)[C@H]1CC(=O)N(Cc2cccc(C(F)(F)F)c2)C1", "% Inhibition": -2, "Z score": 0.33}
{"smiles": "COc1nccnc1N1CC[C@H](N2CCOCC2)[C@H](CCCO)C1", "% Inhibition": -7, "Z score": 1.27}
{"smiles": "O=S1(=O)N=C(NC(c2ccccc2)c2ccccc2)c2ccccc21", "% Inhibition": -8, "Z score": 1.15}
{"smiles": "Cc1cc(C(=O)N2CC(C)CC(C)C2)nc2c1c(-c1ccccc1)nn2-c1cccc(F)c1", "note": "(stereo unspecified)", "% Inhibition": 5, "Z score": -0.67}
{"smiles": "CCc1nc2c(s1)[C@@H](N(C)Cc1cncn1CC)CCC2", "% Inhibition": 0, "Z score": -0.04}
{"smiles": "C=CC[C@]1(CO)CCCN(c2cc(N3CCCC3)nc(N)n2)C1", "% Inhibition": -3, "Z score": 0.44}
{"smiles": "Cc1nscc1C(=O)NC[C@H](O)c1ccc(OC(F)(F)F)cc1", "% Inhibition": -2, "Z score": 0.15}
{"smiles": "CCc1nc(C)c(CNC(=O)c2cc3cc(C)ccn3n2)s1", "% Inhibition": -18, "Z score": 2.33}
{"smiles": "CC(=O)N1CCc2cc(N3C[C@@H](C(=O)Nc4cc(F)ccc4F)CC3=O)ccc21", "% Inhibition": -4, "Z score": 0.74}
{"smiles": "O=C1[C@H]2[C@@H](C(=O)N1c1ccc3c(c1)OCO3)[C@]1(C(=O)Nc3c(Cl)cccc31)N1CCC[C@@H]21", "% Inhibition": -3, "Z score": 0.44}
{"smiles": "O=C(N(C1CCCCC1)C1CCCCC1)C(F)(F)C(F)(F)C(F)(F)F", "% Inhibition": 8, "Z score": -1.54}
{"smiles": "Cc1nn(C(C)C)c(C)c1CN(C)C(=O)c1nnc(CN(C)C)o1", "% Inhibition": -3, "Z score": 0.38}
{"smiles": "Nc1ccc2c(c1)[nH]c(=O)n2-c1cccc(Cl)c1", "% Inhibition": -13, "Z score": 1.56}
{"smiles": "Cc1ccc(S(=O)(=O)N2C[C@@H](F)C[C@H]2C(=O)N2CCc3ccccc3C2)c(C)c1", "% Inhibition": -7, "Z score": 0.78}
{"smiles": "OC[C@H]1COc2ccccc2[C@H]1NCc1ccccn1", "% Inhibition": 6, "Z score": -0.68}
{"smiles": "Cc1ccc(-c2ncc(C(=O)N3CCCC[C@@H]3CN)c(O)n2)cc1", "% Inhibition": -8, "Z score": 1.15}
{"smiles": "CN(C)C(=O)CCCS(=O)(=O)CC(=O)N1CCCCCC1", "% Inhibition": -17, "Z score": 1.41}
{"smiles": "O=C(Nc1cccc(-c2ccc(N3CCCCC3)nn2)c1)Nc1ccccc1Cl", "% Inhibition": -3, "Z score": 0.44}
{"smiles": "CN(CCN1CCOCC1)Cc1cccn1S(=O)(=O)c1ccccc1", "% Inhibition": -5, "Z score": 0.59}
{"smiles": "O=C(COc1ccnc2c1CCCC2)NCc1ccc2c(c1)OCO2", "% Inhibition": -9, "Z score": 1.53}
{"smiles": "O=C1CCCN1CCNc1nccc2occc12", "% Inhibition": -6, "Z score": 1.16}
{"smiles": "O=C(O)c1cccc(NCC2(O)Cc3ccccc3C2)n1", "% Inhibition": 0, "Z score": -0.03}
{"smiles": "Cc1ccc(C(=O)c2ccccc2C(=O)NCC2CC2)cc1C", "% Inhibition": -3, "Z score": 0.49}
{"smiles": "Cc1ccc(N2CCN(c3ccc(C)cc3)C2c2ccc(OCc3ccccc3F)cc2)cc1", "% Inhibition": 1, "Z score": -0.12}
{"smiles": "CC1CCCN(C2CCC(=O)N(Cc3cccc(F)c3)CC2)C1", "note": "(stereo unspecified)", "% Inhibition": -1, "Z score": 0.21}
{"smiles": "CN(C)C(=O)[C@H]1CCCN(Cc2cccn2C)C1", "% Inhibition": -6, "Z score": 1.08}
{"smiles": "Cn1ccc2c(-c3cc(C(=O)N4CCOCC4)ccn3)ccnc21", "% Inhibition": -22, "Z score": 2.39}
{"smiles": "CC(=O)N1CC2(CCN(C/C=C/c3ccccc3)CC2)C[C@H]1C(=O)O", "% Inhibition": -10, "Z score": 0.95}
{"smiles": "CCOc1ccc(NC(=O)N(C)C[C@H](C)c2nccs2)cn1", "% Inhibition": 3, "Z score": -0.41}
{"smiles": "O=C(NCc1nc2ccccc2s1)N1CCCC1", "% Inhibition": -6, "Z score": 1.26}
{"smiles": "O=C(Nc1ccc2c(c1)CCCN2)N1CCO[C@H](c2nccs2)C1", "% Inhibition": -11, "Z score": 1.65}
{"smiles": "CCCc1nc(C)c(C(=O)N2CC[C@H](CN)C2)s1", "% Inhibition": 1, "Z score": -0.09}
{"smiles": "COc1cccc(-c2c[nH]c([C@@H]3COCCN3C3CCOCC3)n2)c1", "% Inhibition": -7, "Z score": 0.84}
{"smiles": "CCC(=O)Nc1nnc(C(CC)CC)s1", "% Inhibition": -18, "Z score": 2.59}
{"smiles": "CCN1C(=O)c2cc(S(=O)(=O)Nc3ccc(C)cc3F)ccc2Oc2cccnc21", "% Inhibition": -5, "Z score": 0.79}
{"smiles": "CCc1ccc(C(C)NC2CCOc3c(F)cccc32)cc1", "note": "(stereo unspecified)", "% Inhibition": -10, "Z score": 1.81}
{"smiles": "Cc1cc(C(=O)N2CCC3(CCC(=O)N(CCc4cccnc4)C3)CC2)[nH]n1", "% Inhibition": 3, "Z score": -0.36}
{"smiles": "COc1ccccc1N1CCN(C(=O)Cn2ccc3ccc(N4CCOCC4)nc32)CC1", "% Inhibition": 3, "Z score": -0.55}
{"smiles": "Cc1cc(CNC(=O)[C@@H]2COCC(=O)N2Cc2ccccc2)on1", "% Inhibition": -7, "Z score": 0.66}
{"smiles": "CN(C)C(=O)c1cncc(C2=CN(C(=O)OC(C)(C)C)CCCC2)c1", "% Inhibition": -2, "Z score": 0.38}
{"smiles": "CCc1ccc(C(=O)N2CCc3[nH]nc(C(=O)NC4CCN(C)CC4)c3C2)cc1", "% Inhibition": 6, "Z score": -0.98}
{"smiles": "Cc1ccc(S(=O)(=O)N2CCC(C(=O)OCC(=O)N3CCN(S(C)(=O)=O)CC3)CC2)cc1", "% Inhibition": -6, "Z score": 1.14}
{"smiles": "CN(CCC(=O)c1ccccc1)Cc1ncnn1C", "% Inhibition": -8, "Z score": 0.77}
{"smiles": "CCNc1ncc(C(=O)N[C@H]2CC(=O)N(CC(F)(F)F)C2)s1", "% Inhibition": -7, "Z score": 1.13}
{"smiles": "Nc1nnc(C2CCN(C(=O)CC3CC4CCC3C4)CC2)o1", "note": "(stereo unspecified)", "% Inhibition": -1, "Z score": 0.1}
{"smiles": "O=C(c1ccco1)N1CCN(c2nccn3nc4c(c23)CCCC4)CC1", "% Inhibition": -11, "Z score": 1.4}
{"smiles": "O=C(NC1CCCC1)C1CC2CCC1C2", "note": "(stereo unspecified)", "% Inhibition": 11, "Z score": -1.06}
{"smiles": "CC(C)Cn1cncc1CN1CCOC2(CCCC2)C1", "% Inhibition": -15, "Z score": 1.61}
{"smiles": "O=C(NC1CCCCC1)c1c(OCC2CC2)cc(=O)n2c1CCOCC2", "% Inhibition": -12, "Z score": 1.42}
{"smiles": "O=C(O)c1cc(NS(=O)(=O)c2cccc(F)c2)ccc1N1CCCCCC1", "% Inhibition": -9, "Z score": 0.84}
{"smiles": "CN(Cc1ccc2nsnc2c1)C(=O)CCC(=O)Nc1nncs1", "% Inhibition": -15, "Z score": 1.48}
{"smiles": "Cc1nc(-c2ccc(Cl)c(S(=O)(=O)N3CCC[C@H](C(=O)NC4CCC(C)CC4)C3)c2)no1", "note": "(stereo partly specified)", "% Inhibition": -12, "Z score": 1.56}
{"smiles": "CC[C@H](Nc1cncc(-n2ccnc2C)n1)c1cccs1", "% Inhibition": -5, "Z score": 0.48}
{"smiles": "Cc1cnc(C(=O)N2CCC(CCn3c(C)cnc3C3CCC3)CC2)cn1", "% Inhibition": -9, "Z score": 1.17}
{"smiles": "O=C1N[C@H]2C[C@@H](C(=O)NC[C@@H]3CCC[C@@H](CCOc4ccccc41)O3)N(Cc1ccc(F)cc1)C2", "% Inhibition": -4, "Z score": 0.6}
{"smiles": "CCCNc1ncc(CN2C[C@H](CO)[C@H](CN3C[C@@H](C)O[C@@H](C)C3)C2)cn1", "% Inhibition": -12, "Z score": 1.25}
{"smiles": "CN(CCCC1(C#N)CCOCC1)Cc1cc(F)cc(F)c1", "% Inhibition": 8, "Z score": -0.84}
{"smiles": "Cc1nc(C)c(Cn2cnc3ccccc3c2=O)s1", "% Inhibition": 1, "Z score": -0.1}
{"smiles": "O=C(NC1CC1)[C@@H]1CCCN1c1ncc(C(F)(F)F)s1", "% Inhibition": 0, "Z score": 0.07}
{"smiles": "N#Cc1cccc(C(=O)N2CCCN([C@H]3CCOC3)CC2)c1", "% Inhibition": -17, "Z score": 2.83}
{"smiles": "COc1cc(Cl)c(C)cc1NC(=O)CC(C)(C)CC(=O)O", "% Inhibition": -3, "Z score": 0.4}
{"smiles": "Cc1ncsc1C(=O)NCc1ccc(N2CCCCC2)nc1", "% Inhibition": 3, "Z score": -0.42}
{"smiles": "Cc1cccc(OC2CCN(C(=O)c3c[nH]c(C)cc3=O)CC2)c1", "% Inhibition": -9, "Z score": 1.35}
{"smiles": "CC(C)c1cc(C(C)C)c(S(=O)(=O)Nc2ccc(NS(=O)(=O)c3c(C(C)C)cc(C(C)C)cc3C(C)C)cc2)c(C(C)C)c1", "% Inhibition": -1, "Z score": 0.08}
{"smiles": "NC(=O)CNS(=O)(=O)[C@H]1C[C@@H]1c1ccccc1", "% Inhibition": -3, "Z score": 0.37}
{"smiles": "CN1CCC(N(CCc2ccccc2)C(=O)c2ccon2)CC1", "% Inhibition": 14, "Z score": -1.97}
{"smiles": "CCN(C(=O)c1ccnc(-c2ccccc2)c1N)c1nc(C)cs1", "% Inhibition": -1, "Z score": 0.22}
{"smiles": "O=C(Nc1nnc(-c2ccc(Br)cc2)s1)[C@@H]1CCCN1C(=O)Nc1ccccc1Br", "% Inhibition": -7, "Z score": 1.46}
{"smiles": "CC(C)[C@H](CNC1=NS(=O)(=O)c2ccccc21)N1CCc2ccccc2C1", "% Inhibition": -2, "Z score": 0.33}
{"smiles": "CC(C)(NCC(=O)N[C@H]1CCCCNC1=O)c1nccs1", "% Inhibition": -4, "Z score": 0.55}
{"smiles": "O=C([C@@H]1Cc2ccccc21)N1CCN(c2cccc(Cl)c2)CC1", "% Inhibition": 13, "Z score": -1.59}
{"smiles": "COC(=O)[C@@H]1N[C@H](c2ccccc2C)[C@@H]2C(=O)N(c3ccccc3)C(=O)[C@@H]21", "% Inhibition": -2, "Z score": 0.38}
{"smiles": "O=C(O)CN1CCCC[C@H](N2CCC(CCc3ccc(F)cc3F)CC2)C1=O", "% Inhibition": -10, "Z score": 1.05}
{"smiles": "CCc1cccc(NC(=O)Cn2cc(-c3nc(C)no3)ccc2=O)c1", "% Inhibition": -4, "Z score": 0.66}
{"smiles": "CN(Cc1c(F)cccc1F)CC1CCCC1O", "note": "(stereo unspecified)", "% Inhibition": -4, "Z score": 0.66}
